Data taken from the supplement of paper PMC9446081.
Out of some 39,000 compounds screened, about 220 (0.56%) showed activity. This is one part of the list.

test system: Escherichia coli K-12 BW25113; assay: relative growth (OD600 normalised to plate interquartile mean) (fraction); higher = less growth inhibition, active = 0.2 or less; conditions: 50 µM; LB; incubation time: overnight (16-24 h)
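Also: static incubation at 37 °C against the wild-type strain, values averaged over two biological replicates.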

| SMILES | relative growth |
| --- | --- |
| CN(Cc1cnc2nc(N)nc(N)c2n1)c1ccc(C(=O)NC(CCC(=O)O)C(=O)O)cc1.O (stereo unspecified) | inactive: 0.943 |
| C[C@@H]1CCCCO[C@H](CN(C)S(=O)(=O)c2ccccc2)[C@H](C)CN([C@H](C)CO)C(=O)c2cc(NC(=O)C3CCCCC3)ccc2O1 | inactive: 0.923 |
| C[C@H](N)c1ccc(Cl)cc1 | inactive: 1.01 |
| C[C@@H]1CN([C@@H](C)CO)C(=O)Cc2cc(NC(=O)Cc3ccccc3)ccc2O[C@H]1CN(C)S(=O)(=O)c1cccs1 | inactive: 1.01 |
| C[C@@H]1CCCCO[C@@H](CN(C)CC2CC2)[C@H](C)CN([C@@H](C)CO)C(=O)c2cc(NC(=O)Nc3ccc4c(c3)OCO4)ccc2O1 | inactive: 0.982 |
| C[C@@H]1CN([C@H](C)CO)C(=O)c2cccc(NS(=O)(=O)c3cn(C)cn3)c2O[C@H]1CN(C)Cc1ccccc1 | inactive: 0.975 |
| CCS(=O)(=O)Nc1ccc2c(c1)C(=O)N(C)[C@@H]1CC[C@@H](CC(=O)NCCCN3CCOCC3)O[C@@H]1CO2 | inactive: 0.993 |
| C[C@H](CO)N1C[C@H](C)[C@@H](CN(C)C(=O)Nc2ccc(C(F)(F)F)cc2)Oc2ccc(NS(C)(=O)=O)cc2CC1=O | inactive: 1 |
| O=C1O[C@@H](c2ccccc2)[C@@H](c2ccccc2)N2[C@@H](c3ccccc3OCCO)[C@]3(C(=O)Nc4ccc(C#CC5(O)CCCCCC5)cc43)[C@@H](C(=O)N3CCCCCCC3)[C@H]12 | inactive: 1.04 |
| CCOC(=O)CN1C[C@]23C=C[C@H](O2)[C@@H](C(=O)NCc2ccc(OC)cc2)[C@H]3C1=O | inactive: 1.03 |
| O=C(C[C@H]1CC[C@@H](NC(=O)CN2CCOCC2)[C@H](CO)O1)NCCc1ccccc1 | inactive: 1.01 |
| C[C@@H]1CN([C@H](C)CO)C(=O)c2cc(NC(=O)Nc3ccc(F)cc3)ccc2O[C@@H](C)CCCCO[C@H]1CN(C)C(=O)Nc1ccccc1 | inactive: 0.997 |
| COc1ccc(-c2cc(=O)c3c(O)c(OC)c(OC4OC(COC5OC(C)C(O)C(O)C5O)C(O)C(O)C4O)cc3o2)cc1 (stereo unspecified) | inactive: 1.04 |
| Cc1ccc(S(=O)(=O)Nc2ccc3c(c2)C(=O)N([C@@H](C)CO)C[C@@H](C)[C@@H](CN(C)Cc2ccc(C(F)(F)F)cc2)O3)cc1 | inactive: 1.04 |
| C[C@@H]1CCCCO[C@H](CN(C)C(=O)Nc2ccc3c(c2)OCO3)[C@@H](C)CN([C@H](C)CO)C(=O)c2cc(NC(=O)c3ccccc3)ccc2O1 | inactive: 1.04 |
| CCC(=O)Nc1ccc2c(c1)C(=O)N(C)C[C@@H](OC)[C@@H](C)CN(C(=O)CN1CCOCC1)[C@@H](C)CO2 | inactive: 0.988 |
